The results in this text go back to the antibiotic and cytotoxicity screens of Wong et al. (2023).

In experiment [1] the test system is HSkMC (human skeletal muscle cells). Nature of the experiment: cytotoxicity call (relative viability < 0.9). Conditions: 10 µM.
Experiment [2] deals with HepG2. Description: cytotoxicity call (relative viability < 0.9). The note with it: 10 µM.
Experiment [3] concerns S. aureus RN4220. Nature of the experiment: growth inhibition call (relative growth <= 0.2). Conditions: 50 µM.

The other results are listed elsewhere or left out.

With `C[C@H]1CN([C@@H](C)CO)C(=O)c2cccc(NS(=O)(=O)c3ccccc3)c2O[C@@H]1CN(C)CC1CC1`, the cytotoxicity call in experiment [1] and in experiment [2] was “inactive” in each case. In experiment [3], the growth inhibition call is “inactive”.

Take `CCOC(=O)N(C)C[C@H]1OCc2cnnn2CCCC(=O)N([C@H](C)CO)C[C@H]1C`: the cytotoxicity call in experiment [1] and in experiment [2] was “inactive” in each case. Further, the growth inhibition call in experiment [3] was “inactive”.

In the case of `C[C@H](CO)N1C[C@H](C)[C@@H](CN(C)C(=O)Nc2ccc(F)cc2)OCCCC[C@H](C)Oc2ccc(NC(=O)NC3CCCCC3)cc2C1=O`, the cytotoxicity call in experiment [1] and in experiment [2] was “inactive” each time. Moreover, the growth inhibition call in experiment [3] was “inactive”.

In the case of `C[C@@H]1CN([C@H](C)CO)S(=O)(=O)c2ccc(C#CCN(C)C)cc2O[C@@H]1CN(C)Cc1ccncc1`, the cytotoxicity call in experiment [1] and in experiment [2] was “inactive” each time. For the same molecule, the growth inhibition call in experiment [3] was “inactive”.

As to `C[C@@H]1CN([C@H](C)CO)C(=O)c2cc(NC(=O)C3CCCCC3)ccc2O[C@@H]1CN(C)C(=O)Nc1cccc2ccccc12`, the cytotoxicity call in experiment [1] and in experiment [2] was “inactive” in each case. Also, the growth inhibition call in experiment [3] is “inactive”.

As for `C[C@H]1CN([C@@H](C)CO)C(=O)c2cccc(NC(=O)c3cnccn3)c2O[C@@H]1CN(C)S(=O)(=O)c1ccccc1`, the cytotoxicity call in experiment [1] and in experiment [2] was “inactive” in each case. The growth inhibition call in experiment [3] was “inactive”.

In the case of `N[C@H]1C[C@@H]1c1ccc(-c2cccc(O)c2)cc1`, the cytotoxicity call in experiment [1] and in experiment [2] was “inactive” in each case. Moreover, the growth inhibition call in experiment [3] is “inactive”.

In the case of `COc1ccc(S(=O)(=O)N(C)C[C@H]2Oc3ccc(NC(=O)Cn4cnnn4)cc3CC(=O)N([C@H](C)CO)C[C@@H]2C)cc1`, the cytotoxicity call in experiment [1] and in experiment [2] was “inactive” throughout. Besides, in experiment [3], the growth inhibition call is “inactive”.

As to `C[C@@H]1CN([C@H](C)CO)C(=O)c2cc(NC(=O)Nc3ccc4c(c3)OCO4)ccc2O[C@@H](C)CCCCO[C@@H]1CN(C)C(=O)C1CCCCC1`, the cytotoxicity call in experiment [1] and in experiment [2] was “inactive” each time. In addition, in experiment [3], the growth inhibition call is “inactive”.

On to `COc1ccccc1S(=O)(=O)N(C)C[C@H]1Oc2ncc(Br)cc2C(=O)N([C@@H](C)CO)C[C@H]1C`, for which the cytotoxicity call in experiment [1] and in experiment [2] was “inactive” in each case. In experiment [3], the growth inhibition call is “inactive”.

`C[C@H]1CN([C@@H](C)CO)C(=O)c2cccc(NC(=O)C3CCOCC3)c2O[C@H]1CN(C)S(=O)(=O)c1ccc(F)cc1`: the cytotoxicity call in experiment [1] and in experiment [2] was “inactive” in each case. In experiment [3], the growth inhibition call is “inactive”.

As to `C[C@H]1CN([C@@H](C)CO)C(=O)c2c(c3ccccc3n2C)-c2ccccc2CO[C@H]1CN(C)C(=O)c1cc(Cl)cc(Cl)c1`, the cytotoxicity call in experiment [1] and in experiment [2] was “inactive” in each case. For the same molecule, the growth inhibition call in experiment [3] is “inactive”.

In the case of `O=c1cc(Oc2ccc(O)cc2)oc2cc(O[C@@H]3O[C@H](CO[C@@H]4O[C@H](CO)[C@@H](O)[C@H](O)[C@H]4O)[C@@H](O)[C@H](O)[C@H]3O)cc(O)c12`, the cytotoxicity call in experiment [1] and in experiment [2] was “inactive” each time. The growth inhibition call in experiment [3] is “inactive”.

For `C[C@@H]1CN([C@H](C)CO)C(=O)c2cc(NC(=O)Nc3ccc(F)cc3)ccc2O[C@@H]1CN(C)Cc1ccc(Cl)c(Cl)c1`, the cytotoxicity call in experiment [1] and in experiment [2] was “inactive” each time. Moreover, the growth inhibition call in experiment [3] was “inactive”.

Regarding `COc1cccc(S(=O)(=O)N(C)C[C@@H]2Oc3ncc(C#CC(C)C)cc3C(=O)N([C@H](C)CO)C[C@@H]2C)c1`, the cytotoxicity call in experiment [1] and in experiment [2] was “inactive” throughout. Further, in experiment [3], the growth inhibition call was “inactive”.

Turning to `C[C@@H]1CN([C@H](C)CO)C(=O)c2cccc(NC(=O)C3CC3)c2O[C@@H]1CN(C)C(=O)NC1CCCCC1`, the cytotoxicity call in experiment [1] and in experiment [2] was “inactive” each time. Moreover, in experiment [3], the growth inhibition call was “inactive”.

`C[C@@H]1CCCCO[C@H](CN(C)C(=O)Cc2ccccc2)[C@H](C)CN([C@@H](C)CO)C(=O)c2cc(NC(=O)Nc3ccc(F)cc3)ccc2O1`: the cytotoxicity call in experiment [1] and in experiment [2] was “inactive” throughout. The growth inhibition call in experiment [3] is “inactive”.

With `C=C[C@@H](N)CCC(=O)O`, the cytotoxicity call in experiment [1] and in experiment [2] was “inactive” each time. For the same molecule, the growth inhibition call in experiment [3] was “inactive”.

For `C[C@@H]1CN([C@H](C)CO)C(=O)c2cccc(NS(=O)(=O)c3cn(C)cn3)c2O[C@@H]1CN(C)Cc1ccc2c(c1)OCO2`, the cytotoxicity call in experiment [1] and in experiment [2] was “inactive” each time. In experiment [3], the growth inhibition call was “inactive”.

On to `COc1ccc(NC(=O)N(C)C[C@H]2Oc3ccc(NC(=O)Cn4cnnn4)cc3C(=O)N([C@H](C)CO)C[C@H]2C)cc1`, for which the cytotoxicity call in experiment [1] and in experiment [2] was “inactive” throughout. Besides, the growth inhibition call in experiment [3] is “inactive”.

For the molecule `C[C@@H]1CCCCO[C@H](CN(C)C(=O)NC2CCCCC2)[C@H](C)CN([C@@H](C)CO)C(=O)c2cc(NC(=O)c3ccncc3)ccc2O1`, the cytotoxicity call in experiment [1] and in experiment [2] was “inactive” throughout. Besides, in experiment [3], the growth inhibition call was “inactive”.

For `C[C@@H]1CN([C@H](C)CO)C(=O)c2cc(NS(=O)(=O)c3cccs3)ccc2O[C@@H](C)CCCCO[C@H]1CN(C)Cc1ccccc1`, the cytotoxicity call in experiment [1] and in experiment [2] was “inactive” throughout. The growth inhibition call in experiment [3] is “inactive”.

With `C[C@H](CO)N1C[C@H](C)[C@H](CN(C)C(=O)N[C@H](C)c2ccccc2)OCc2ccccc2-c2c(n(C)c3ccccc23)C1=O`, the cytotoxicity call in experiment [1] and in experiment [2] was “inactive” throughout. Besides, the growth inhibition call in experiment [3] is “inactive”.

As for `C[C@H](CO)N1C[C@H](C)[C@@H](CN(C)Cc2ccc(C(F)(F)F)cc2)OCCCC[C@H](C)Oc2ccc(NS(=O)(=O)c3cccs3)cc2C1=O`, the cytotoxicity call in experiment [1] and in experiment [2] was “inactive” throughout. Moreover, the growth inhibition call in experiment [3] is “inactive”.

Take `COc1ccc(NC(=O)N(C)C[C@H]2OCCCC[C@@H](C)Oc3ccc(NC(=O)NC4CCCCC4)cc3C(=O)N([C@H](C)CO)C[C@H]2C)cc1`: the cytotoxicity call in experiment [1] and in experiment [2] was “inactive” throughout. The growth inhibition call in experiment [3] was “inactive”.

As for `O=C(C[C@@H]1CC[C@H](NC(=O)CN2CCOCC2)[C@@H](CO)O1)NCc1cccc(F)c1`, the cytotoxicity call in experiment [1] and in experiment [2] was “inactive” each time. Besides, the growth inhibition call in experiment [3] was “inactive”.

With `C[C@H]1CN([C@@H](C)CO)C(=O)Cc2cc(NS(=O)(=O)c3ccc(Cl)cc3)ccc2O[C@H]1CN(C)Cc1ccc(Cl)c(Cl)c1`, the cytotoxicity call in experiment [1] and in experiment [2] was “active” throughout. Moreover, in experiment [3], the growth inhibition call was “inactive”.

Turning to `C[C@H]1CN([C@@H](C)CO)C(=O)c2cccc(NS(=O)(=O)c3cn(C)cn3)c2O[C@H]1CN(C)C(=O)NC1CCCCC1`, the cytotoxicity call in experiment [1] and in experiment [2] was “inactive” throughout. The growth inhibition call in experiment [3] was “inactive”.
